Results: PubChem BioAssay AID686979 (National Center for Advancing Translational Sciences (NCATS), 2013)
“And” between values parts separate entries of the source, which are not always exact repeats. Identical values can stand only once. In all, about 420,000 compounds went through this assay and about 50,000 (12%) were called active. The shares of active, inactive and inconclusive entries below differ from those in the screen. Calls come from the whole dose curve; as a rule, active = well fitted inhibition curve with a large enough effect; inconclusive = small, poorly fitted or top-dose-only effect; inactive = flat fitted curve, though single readings scatter. Potencies of inconclusive entries are doubtful fits and often do not repeat.
% is set by controls: 0 for no effect and ±100 for the full control effect; potency is the fitted concentration of half-maximal effect; tags give direction and shape of the fitted curve.

Assay: qHTS for Inhibitors of human tyrosyl-DNA phosphodiesterase 1 (TDP1): qHTS in cells in presence of CPT; note: nearly all actives have a fitted effect of over 55% in size
Settings: chicken DT40 Tdp1-/-;hTDP1 cells + 20 nM CPT, ATP luminescence, 48 h; activity change, negative = growth inhibition: at 46.2 µM (top of the series) unless noted
Outline: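 Chicken DT40 Tdp1-/- cells complemented with human TDP1, 400 cells/well, exposed to compounds plus 20 nM camptothecin for at least 48 h at 37 C; viability read as ATP content by CellTiter-Glo luminescence.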
In the case of CC(C)c1c(C(=O)N/N=C/C=C/c2ccccc2)nnn1-c1nonc1N, the Potency is reported as inconclusive: 23.1 µM [inhibitor, single point].
In the case of CC(NC(=O)CN1C(=O)COc2ccc(S(=O)(=O)N3CCCCCC3)cc21)c1ccccc1 (stereo unspecified), the Potency is reported as inconclusive: 18.4 µM [inhibitor, single point].
For CCOc1ccccc1N1CCN(C(=S)NC(=O)C23CC4CC(CC(C4)C2)C3)CC1, the Potency was active: 18.4 µM.
For COc1cccc(C(=O)/C=C/c2ccc(SC)cc2)c1, the Potency was inconclusive: 20 µM [inhibitor, partial curve].
For Fc1ccc2nc(Nc3nc4c(s3)CCCC4)sc2c1, the Potency was inconclusive: 29.1 µM [inhibitor, single point].
In the case of CCn1c(CSc2ncccn2)nnc1SCC(=O)N1CCCCC1, the “activity change, negative = growth inhibition” value is reported as inactive: 8.08%.
For Cc1ccc(Sc2c(C(=O)NCc3cccc(F)c3)[nH]c3ccccc23)cc1, the Potency was inconclusive: 29.1 µM [inhibitor, single point].
For Cc1ccc(OCc2ccc(C(=O)Nc3nc4ccccc4n3Cc3ccccc3)o2)c([N+](=O)[O-])c1, the Potency was inconclusive: 23.1 µM [inhibitor, single point].
For CN(C)CCNC(=O)c1ccc(-n2c(-c3ccccc3)cc3c2CCCCC3)cc1, the Potency was inconclusive: 29.1 µM [inhibitor, single point].
With COc1ccc(Br)cc1CNC(=O)c1ccc2c(c1)N(C)CCS2 the Potency was active: 23.1 µM.
With COCCN1Cc2cc3cc(C)ccc3nc2SC1=Nc1ccc(OC)cc1 the Potency was inconclusive: 16.4 µM [inhibitor, single point].
In the case of CCCc1c(C)nc(N2CCN(c3ccccc3OC)CC2)[nH]c1=O, the Potency is reported as inconclusive: 29.1 µM [inhibitor, single point].
With O=C(C1CCCO1)N1CCN(S(=O)(=O)c2ccc(Br)cc2)CC1 (stereo unspecified) the “activity change, negative = growth inhibition” value was inactive: -5.03%.
For O=C(COc1ccc(Cl)cc1)N(Cc1ccco1)Cc1ccco1, the Potency was inconclusive: 29.1 µM [inhibitor, single point].
For CCOc1ccccc1CNc1nnnn1C, the activity change, negative = growth inhibition was inconclusive: -36.7% [inhibitor].
With Cn1c(CCN2CCN(c3ccccn3)CC2)nc2cc(NS(=O)(=O)c3ccc(F)cc3)ccc21 the Potency was active: 16.4 µM.
In the case of COc1ccc(/C=N/c2c(-c3ccc(OC)cc3)nc3n2CCS3)cc1, the Potency is reported as inconclusive: 29.1 µM [inhibitor, single point].
With COc1ccc(-c2sc3cc(OC)c(OC)cc3c2-c2ccc(O)cc2)cc1 the Potency was inconclusive: 29.1 µM [inhibitor, single point].
For COc1ccc(CNC(=O)COC(=O)CC2CC3CCC2C3)cc1OC (stereo unspecified), the “activity change, negative = growth inhibition” value was inactive: -7.4%.
For O=C(c1cnc2sccn2c1=O)N1CCc2ccccc2C1, the “activity change, negative = growth inhibition” value was inactive: -12.2%.
For Cc1nc2ccn(Cc3cccs3)c(=O)c2cc1C(=O)NCc1ccc(Br)cc1, the Potency was inconclusive: 29.1 µM [inhibitor, single point].
In the case of c1ccc(-n2ncc3c(NCc4ccco4)ncnc32)cc1, the Potency is reported as inconclusive: 29.1 µM [inhibitor, single point].
With COc1ccc(OC)c(NC(=O)CSC2=Nc3ccccc3C3=NC(CCC(=O)NCc4ccccc4)C(=O)N23)c1 (stereo unspecified) the Potency was inconclusive: 23.1 µM [inhibitor, single point].
For CCN(/C=N/S(=O)(=O)c1ccc(Cl)cc1)CC, the “activity change, negative = growth inhibition” value was inactive: 0.757%.
With CCNc1ccc(C(=O)OCC)cc1NC(=O)c1cccc(N(C)C)c1 the Potency was active: 3.26 µM.
In the case of CCC(c1nnnn1-c1ccc2c(c1)OCCO2)N1CCN(c2ncccc2C(F)(F)F)CC1 (stereo unspecified), the Potency is reported as inconclusive: 29.1 µM [inhibitor, single point] and inconclusive: 16.4 µM [inhibitor, single point].
In the case of Fc1cc(F)cc(NC(=S)NCCCN2CCOCC2)c1, the “activity change, negative = growth inhibition” value is reported as inactive: -16.7%.
In the case of CCOC(=O)c1c(NC(=O)Cc2ccccc2)sc2c1CC(C)(C)NC2(C)C, the Potency is reported as inconclusive: 29.1 µM [inhibitor, single point].
In the case of Cc1cc(C(=O)NNC(=O)COc2ccccc2Cl)n[nH]1, the “activity change, negative = growth inhibition” value is reported as inactive: -10.1%.
With COc1ccc(C2CC(=O)Oc3cc(OC)ccc32)cc1 (stereo unspecified) the “activity change, negative = growth inhibition” value was inactive: -4.97%.
With COc1ccc2c(c1)NC(c1ccc(N(C)C)cc1)c1cccn1-2 (stereo unspecified) the Potency was inconclusive: 23.1 µM [inhibitor, single point].
With CCOC(=O)c1c(-c2ccccc2)csc1NC(=O)/C(C#N)=C\c1ccc(O)c(OC)c1 the Potency was inconclusive: 25.9 µM [inhibitor, single point].
With CN1CCN(CCNC(=O)Nc2ccccc2C(F)(F)F)CC1 the “activity change, negative = growth inhibition” value was inactive: 6.3%.
In the case of CCOC(=O)C1=CCN(S(=O)(=O)c2ccc(Br)cc2)C1c1ccc(C)cc1 (stereo unspecified), the Potency is reported as inconclusive: 25.9 µM [inhibitor, single point].
For COc1ccccc1CCNC(=O)c1ccc(Br)s1, the Potency was inconclusive: 29.1 µM [inhibitor, single point].
In the case of N#Cc1ccc(-c2csc(NC3=NCCCCC3)n2)cc1, the Potency is reported as inconclusive: 29.1 µM [inhibitor, partial curve, poor fit].
For O=S(=O)(Nc1cccc(C(F)(F)F)c1)c1ccc(NS(=O)(=O)c2ccc3c(c2)OCCO3)cc1, the “activity change, negative = growth inhibition” value was inactive: -27.2%.
For CC(=O)C(Sc1ccc2nnc(-c3cccnc3)n2n1)C(C)=O, the “activity change, negative = growth inhibition” value was inactive: -13.6%.
With COc1ccc(C(=O)Nc2cccc(-c3cn4ccsc4n3)c2)c(OC)c1 the Potency was active: 5.17 µM.
In the case of CC(CCc1ccccc1)NC(=O)COC(=O)c1ccccc1Br (stereo unspecified), the “activity change, negative = growth inhibition” value is reported as inactive: 14.4%.
With COc1ccc(CCCc2nnc(SCC(=O)Nc3nc(C)cs3)n2C)cc1C the Potency was inconclusive: 29.1 µM [inhibitor, single point].
In the case of COc1ccc(Cc2nnc(NC(=O)c3cc(OC)c(OC)c(OC)c3)s2)cc1, the Potency is reported as inconclusive: 23.1 µM [inhibitor, single point].
With COc1ccc(C2=NOC(Cn3nc(C(=O)NCc4ccco4)cc3-c3ccccc3)C2)cc1 (stereo unspecified) the Potency was inconclusive: 25.9 µM [inhibitor, single point].
For CCc1nn(CC(=O)N2CCC(C)CC2)c(=O)c2cc3occc3n12, the “activity change, negative = growth inhibition” value was inactive: -13.6%.
For Cc1ccccc1-c1nc(N(C)Cc2ccco2)c2ccccc2n1, the Potency was inconclusive: 29.1 µM [inhibitor, single point].
For O=C(Nc1ccc(-n2cnnn2)cc1)c1cc(S(=O)(=O)N2CCCC2)ccc1Cl, the Potency was inconclusive: 20.6 µM [inhibitor, partial curve].
